Measured values published in ChEMBL document CHEMBL4888484, “Replenishing the malaria drug discovery pipeline: Screening and hit evaluation of the MMV Hit Generation Library 1 (HGL1) against asexual blood stage Plasmodium falciparum ,using a nano luciferase reporter read-out” (2022).
About 540 (0.36%) of roughly 150,000 compounds showed an effect of 50% or more. The list shows a part of the results.

The molecules below were run on Plasmodium falciparum (assay: Primary screen in NF54 nanoGlo assay, in single point, at 2uM, 72h; a lower Z score goes with more inhibition). Conditions: timepoint 72 hour.
Type: functional, Erythrocyte

Row | SMILES | % Inhibition [%] | Z score
1 | COc1cccc(-c2nc3ccc(C(=O)NCCN4CCCC[C@@H]4CO)cc3o2)c1 | -6 | 0.95
2 | Cc1nc(C(C)C)sc1CNC(=O)c1cnc(O)cn1 | -6 | 0.88
3 | O=C(NCCc1cccs1)c1ccc2ccccc2n1 | -8 | 1.09
4 | CCCc1nc(C)cc(N2CCC3(CC2)CNC(=O)O3)n1 | -7 | 1.4
5 | O=C(CC1(O)CCCC1)NCc1cccc(C(F)(F)F)n1 | 3 | -0.35
6 | COC[C@H](C)NC(=O)CS(=O)(=O)c1ccc(F)cc1F | 0 | 0.03
7 | CN(C)c1ccccc1NC(=O)NC(C)(C)C(=O)NCC(C)(C)C | -16 | 2.01
8 | CCN1CCCC[C@@H]1CNc1cnc(C(=O)OC)cn1 | -3 | 0.47
9 | CC(C)(C)NC(=O)N1CC[C@@]2(CCCNC2=O)C1 | 2 | -0.23
10 | Cc1ccc(CN(C)c2ccnc(C(F)(F)F)n2)o1 | 9 | -1.31
11 | c1ccc(-n2nnnc2CN2CCCC2)cc1 | -25 | 2.51
12 | CN(c1cccc(NC(=O)c2ccc(N(Cc3ccc(Cl)cc3)S(C)(=O)=O)cc2)c1)S(C)(=O)=O | -14 | 1.74
13 | O=C([C@H]1CC(=O)N(c2cccc(O)c2)C1)N1CCc2[nH]cnc2C1 | -16 | 2.98
14 | CN(Cc1ccc(Br)c(F)c1)C(=O)C(C)(C)O | -2 | 0.31
15 | CCN1C[C@H](Nc2ncnc3sc(C)cc23)[C@@H](OC)C1 | -9 | 1.14
16 | O=C(NCC1CCCCC1)c1nnc(N2CCCCC2)c2ccccc12 | -11 | 1.36
17 | COc1cccc([C@H]2C[C@@H](C(F)(F)F)n3ncc(C(=O)Nc4cc(OC)c(Cl)cc4OC)c3N2)c1 | -20 | 2.69
18 | CS(=O)(=O)N1CCC(C(=O)N(CC(F)(F)F)C2CCOCC2)CC1 | 4 | -0.5
19 | Cc1nnc(C(=O)N2CCC(CCN3CCOCC3)CC2)s1 | 0 | -0.05
20 | CC1(C)N=C(c2ccccc2)C(=O)N1CC(=O)N1CCN(c2ccccc2F)CC1 | -3 | 0.41
21 | CCc1ccc(C(=O)N(C(=O)c2ccc(CC)cc2)c2sc3c(c2C#N)CCC3)cc1 | 33 | -3.75

Row | SMILES | % Inhibition [%] | Z score
22 | CN(C(=O)CC(C)(C)C)c1nc2ccccc2o1 | 16 | -1.6
23 | CN(CCNc1cc([C@H]2CCOC2)ncn1)Cc1ncc[nH]1 | -8 | 1.47
24 | Cc1c(C(=O)O)sc2ncnc(NCc3ncc[nH]3)c12 | 2 | -0.21
25 | CC(=O)N1CCC2(CC1)NN=C1C=CC(c3nc(C(C)(C)C)no3)=CN12 | 31 | -4.05
26 | Cc1cccc(S(=O)(=O)CCCn2ccnc2C(C)C)c1 | -8 | 1.06
27 | Nc1ccc(C(=O)N2C[C@@H]3CC[C@H]2CN(C(=O)C2CCC2)C3)cn1 | -21 | 2.3
28 | CCCn1ncc2[nH]c(-c3ccc(OC)c(F)c3)nc21 | -7 | 0.82
29 | O=C(CCCc1cn[nH]c1)N[C@H]1CC[C@H]1NC1CCCCCC1 | 10 | -1.81
30 | NS(=O)(=O)C1CCN(C(=O)C2C3CCCC32)C1 (centres undefined) | -16 | 2.28
31 | CS(=O)(=O)N(CCCN1CCOCC1)[C@H]1CCN(C(=O)CCC2CCCC2)C1 | -2 | 0.33
32 | C1CCn2nnnc2[C@H](c2nc(C3CC3)n[nH]2)C1 | -7 | 1.19
33 | COCc1cc(C[C@@H]2CC[C@H](O)[C@@H](CNC(=O)c3ccc4c(c3)OCO4)O2)no1 | 27 | -3.12
34 | COCc1cc(-c2cn(C[C@H](O)CO)nn2)ccc1OC | -4 | 0.76
35 | Cn1nc(-c2cccnc2)cc1CNC(=O)c1ccc2ccccc2n1 | 9 | -1.13
36 | CCOC(=O)c1c2c(n(NC(N)=O)c1C)C(=Cc1ccccc1)CC2 | -15 | 2.16
37 | Cc1cc(C)c(-c2nc3cc(-n4cnnn4)ccc3[nH]2)c(C)c1CO | -1 | 0.2
38 | Cc1cnc(N2CC(C)OC(C3CC3)C2)s1 (centres undefined) | -9 | 0.83
39 | COCCN1CCN(Cc2ccc(Cl)s2)[C@H]2CS(=O)(=O)C[C@H]21 | -8 | 1.1
40 | COc1ccc(CN2C[C@H](C(=O)O)[C@@H](c3ccccc3OC)C2)cc1F | -10 | 1.39
41 | CCN(C(=O)C12CCC(C)(c3nc4ccccc4nc31)C2(C)C)c1ccccc1 (centres undefined) | -9 | 1.11
42 | NC(=O)[C@@H]1CN(C(=O)c2c3c(nc4ccccc24)CCC3)CCO1 | -11 | 1.1
